Measurements as given in the RNAGym collection of RNA variant scans (doi:10.7554/elife.90254).
Read counts are not given, so values of variants with three or more changes are uncertain.

B1: LINE1-mini (parent)
chain: GGCAGAGCUCAACACAGCGUGGCAAAGUGGCUGUGGCUAGACUGCC

Variants of: B1
Test: self-cleavage, relative activity (ratio to wild type); higher = more cleavage; in vitro, sequencing; the parent is a self-cleaving ribozyme

Row | Variant | self-cleavage
1 | GACAGAGCACAACACAGCGUGGCUAAGUGGCUGUGGAUAGACUGCC | 0.26
2 | GACAGAGCUCAACACAGCGUGGCAAAGUGGCUGUUGGUACCCUGCC | 0.83
3 | GACAGAGCUCAACACAGCGUGGCAAAAUGGCUGUGGCUACACUUCC | 0.05
4 | GACAGAGCGCAACACAGCAUUGCAAAGUGGCUGUGGCUAGACUGCC | 0.21
5 | GACAGAGCUCAACACAGCGUGGCAAAGUCACUUUGGGUAGACUGCA | 0.11
6 | GACAGAGCUCAACACAGCGUGGCAAAUUGGCUGUGGCUAGAAUGCC | 0.34
7 | GACAGAGCUCAACACAGCGUGGCAAAGAGGCUGUGGGUAAACUGCC | 0.13
8 | GACAGAGCUCAACACAGCGUGGCAAAGUGGCUGUGGCUAGACUUCA | 0.19
9 | GACAGAGCUCAACACAGCGUAGCAAAGUGGCUGUGUCUAGAAUGCC | 0.04
10 | GACAGAGCUCAACACAGCAUGGCAAACUGGCUGUGGCUAGACUGUC | 1.91
11 | GACAGAGCACAACACAGCGUGGCAAAGUGGCUGUGGCUAAACUGCC | 0.01
12 | GACAGAGCUCAACACAGCGGUGCAAAGGGGCUGUGGCUAGAAUGCC | 0.45
13 | GACAGAGCUCAACACAGCGUAGCAAACUGGCUGUGGCUAGACAGCC | 0.28
14 | GACAGAGCUCAACACAGCGUGGCAAAGUGGCUUUGGCUAGACUGCG | 0.11
15 | GACAGAGCCCAACACUACGUGGCAAAGUGGCUGUGGCUAGACUGCC | 0.02
16 | GACAGAGCUCAACACAGCGUGGCAAACCGGCUGAGGAUCGAAAGCC | 0.05
17 | GACAGAGCGCAACACAUCGUGGCAAAGUGGCUGUGGCUAGACUGCC | 0.24
18 | GACAGAGCGCAACACAGCGUGGAAAAGUGGCUGUGGCUAGACUGCC | 0.33
19 | GACAGAGCGCAACACAGCGUGGUAAAGUGGCUGUGGCUAGACUGCC | 0.5
20 | GACAGAGCCCAACACAGCGUGGCAAAGUGGCUGUGCCUAGACUGCC | 0.05
21 | GACAGAGCUCAACACAGCAUGGCAAAGUGGCUGUGUCUAGACUGCC | 0.17
22 | GACAGAGCUCAACACAGCGUGGCAAAGUGUCUGUGGCUAGAGUGCC | 0.02
23 | GACAGAGCUCAACACAGCGUGGCAAAGUGUCUGUGUCUAGACUGCC | 0.14

Row | Variant | self-cleavage
24 | GACAGAGCUCAACACACGGUGGCAAACUGGCUGUGGCUAGACUGCC | 0.07
25 | GACAGAGCUCAACACAGCGUGGCAAACUGGCUGUGACUAGACUGCC | 0.29
26 | GACAGAGCUCAACACAGCGUGGCAAACUGGCUGUGUCUAGACUGCC | 0.16
27 | GACAGAGCUCAACACAGCGUGACAAAAUGGCUGUGGCUAGACUGCC | 0.31
28 | GACAGAGCUCAACACAGCGUGGCAAAGUGGCUAUGGCUAGACGGAC | 0.22
29 | GACAGAGCUCAACACAGCGUGGCAAAGUGGCUGUUGCUAAACUGCC | 0.2
30 | GACAGAGCUCAACACAGCGUGGCAAAGUGGCUUUGGCUACACUGCC | 0.2
31 | GACAGAGCUCAACACAGCGUGGCAAAAGGGCUGUGCCUAGACUGCC | 0.07
32 | GACAGAGCUCAACACAGCGUGUCAAAGUGGCUGUGGCUAGACAGCC | 0.22
33 | GACAGAGCUCAACACAGCGUGUCAAAGUAGCGGUCGCUAGUCUGCC | 0.05
34 | GACAGAGCUCAACACAGCGUGGCAAAGUGGCUGUGGCUACACUGGC | 0.31
35 | GACAGAGCUCAACACAGCGUGGCAAAGUGGCUUUGGCCAAACUGCC | 0.12
36 | GACAGAGCUCAACACAGCGUGUCAAUGUGGCUGUGGCUAGACUGCC | 0.46
37 | GACAGAGCACAACACACCGUGGCAAAGUGGCUGUGGCUAGACUGCA | 0.29
38 | GACAGAGCCCAACACAGCGUGGAAAAAUGGCUGUGGCUAGACUGCA | 0.14
39 | GACAGAGCUCAACACAGCGUGGCAAAGUUGAUGUGGCUAGUCUGCC | 0.08
40 | GACAGAGCUCAACACAACGUGGCAAAGUGGCUGUGGCAAGACCCCC | 0.06
41 | GACAGAGCACAACACACCGUGGCAAAGUGGCUGUGGCUAGACUGCC | 0.26
42 | GACAGAGCUCAACACAGCUUGCCAACGUGGCUGUGGCUAGAUUGCC | 0.04
43 | GACAGAGCUCAACACAGCGUGGCAAAGUGGCUGUCGCUAGACUGCU | 0.18
44 | GACAGAGCUCAACACAGCGUGGCAAAGUCGCUGUGGCUAGGCUGCC | 0.14
45 | GACAGAGCUCAACACAGCGUGGCAAAGUGUCUGUGGGUAGACUGCC | 0
46 | GACAGAGCUCAACACAGCAUGGCAAAGUGGGUGGGGCUAGACUGCC | 0.08

Row | Variant | self-cleavage
47 | GACAGAGCUCAACACAGCCUCGCAAAGUGGCUGUGGAUAGACUGCC | 0.06
48 | GACAGAGCUCAACACAUCGUGGCAAAGUGGCUGUGGCUAGCAUGCC | 0.42
49 | GACAGAGCUCAACACAGCUUGGCAUAGUGCCUGUGGCUAGACUGCU | 0.07
50 | GACAGAGCACAACACAACGUGGCCAAGUGGCAGUGGCUAUACUGCC | 0.45
51 | GACAGAGCUCAACACACCGUGGCAGCGUGGCUGUGGCUAGACUGCC | 0.03
52 | GACAGAGCUCAACACAGCGUGGCAAAUUGGCUGUGGCUAGACUGGC | 0.45
53 | GACAGAGCUCAACACACCGUGCCAAAGUGGCUGUGGCUAGACUGCC | 0.42
54 | GACAGAGCUCAACACAGCAUGGCAAAGUGGCUGUGGCUAGCCUGCC | 0.09
55 | GACAGAGCUCAACACAGCGUGGCAAAGUGGCUGUGGCUACCCUGCC | 0.09
56 | GACAGAGCUCAACACACACUGGCAAAGUGGCUGUGGCUAGACUGCC | 1.09
57 | GACAGAGCGCAACACAUCGUGGCUAAGUGGCUGUGGCUAGACUGCC | 0.32
58 | GACAGAGCUCAACACAGCGUGACAAGGUGGGUGUGGCUAGACUGCC | 0.15
59 | GACAGAGCUCAACACAGCGUGGCAAAGUUGCUGUGCCUAGACUGCC | 0.12
60 | GACAGAGCCCAACACAGCGUGGCAGAGUGGCUGUGGCUACAAUGCC | 0.08
61 | GACAGAGCUCAACACAGCGUGGCAAAGUUGCUGUCGCUAGACUUCC | 0.14
62 | GACAGAGCUCAACACACCCUGGCAAAGUGGCUGUGGCUAGACUGCC | 0.24
63 | GACAGAGCUCAACACACCGUGGCAAAGUGGCUGGGGCUAGACUGCC | 0.11
64 | GACAGAGCUCAACACAGCGUAGCAAUGUGGCUGUGGCUAGACUGCC | 0.33
65 | GACAGAGCUCAACACAGCGUGUCAAAGUGGCUUUGGCAAGACUGCC | 0.07
66 | GACAGAGCUCAACACAGCGUGGCAAACAAGCGGUGGGUAGACAGCC | 0.09
67 | GACAGAGCUCAACACAGCGUGGCAAAGUGUCUGUGGCCAGACUGCU | 1.07
68 | GACAGAGCUCAACACACCGUGGCAAAGUGGCUGUGGCUAGACUGAC | 0.3
69 | GACAGAGCUCAACACAACGUGGCAAAGUGGCUGUAGCUAGACUGCC | 0.22

Row | Variant | self-cleavage
70 | GACAGAGCUCAACACAGCAUAGCAAAGUCGCUGUCGCUAGAGUGCC | 0.05
71 | GACAGAGCUCAACACAUCGUGGCACAGUGGCUGUGGCUAGACUGCC | 0.12
72 | GACAGAGCUCAACACAUCGUGGCAAGGUGGCUGUGGCUAGACAGCC | 0.21
73 | GACAGAGCUCAACACAGCGUGCCAAAGUGGCUGUAGCUAGACUGCC | 0.36
74 | GACAGAGCCCAACACAGGGUGGCAAAGUGGCUGUGGCUAGACUGCC | 0.09
75 | GACAGAGCUCAACACAGCGUUGAAUAGUGGCUGUGGCUAGACUGCC | 0.26
76 | GACAGAGCACAACACAGCUAGGCAAAGUGGCUGUGGCUAGACUGCC | 0.13
77 | GACAGAGCUCAACACAGCGUCGCAAAGUGGCUGUGGCUAGGCUGCG | 0.01
78 | GACAGAGCUCAACACAGCGUUGCAAAUCGGGUGUGGCUAGACUGCC | 0.16
79 | GACAGAGCUCAACACAGCGUUGCAAUGAGGCUGUGGCUAGACUGCC | 0.19
80 | GACAGAGCACAACACAGGGUGGCAAAGUGGCUGUGGCUAGACUGCC | 0.19
81 | GACAGAGCUCAACACAGCGUCGAAAAGUGGCUGGGGCUAGACUGAC | 0.12
82 | GACAGAGCUCAACACAGCGUGGCAAAGUGGCUGUGUCUAGACUGCA | 0.16
83 | GACAGAGCUCAACACAGCGAGGCAAAGUGGCUGUGGCUUGACUGCC | 1.22
84 | GACAGAGCUCAACACAGCGUGGCAAAUUUGCUGUGGCUAGAUUGCC | 0.2
85 | GACAGAGCGCAACACAGCGUGGCAAAGUGUCUGUUGCUAGACUGCC | 0.1
86 | GACAGAGCUCAACACAGCGUGGCAAAGUGGCUCUGGCUACACUGCC | 0.06
87 | GACAGAGCUCAACACAGCGUGGCAAAGUCGCUGGGGCUAGACUCCC | 0.06
88 | GACAGAGCCCAACACGGCGUGGCAGAUUGGCUGUGGCUAGACUGCC | 0.02
89 | GACAGAGCGCAAUGCAGAGUGGCAAGGUGGCUUUGGCUAGACUGCA | 0.03
90 | GACAGAGCUCAACACAGCGUGGCAAAGUGGCUGUUGCUAGACUGAU | 0.05
91 | GACAGAGCUCAACACAGCUUAGCAAAGUGGCUGUGGCUAGACUGCC | 0.28
92 | GACAGAGCUCAACACAGCGUGACAAAGUGGCUGUGCCUAGACUGCU | 0.31

Row | Variant | self-cleavage
93 | GACAGAGCUCAACACAGCGUGGCAAACUGGCGGUGGCUAGACUGCC | 0.16
94 | GACAGAGCCGAACACAGCGUGGUAAAGCGGCUGUGGCUAGACUGCC | 0.05
95 | GACAGAGCCCAACAUAACGUGGCAAUGUGGCUGUGGCUAGACUGCC | 0.02
96 | GACAGAGCUCAACACAUCGUGGCCAAGUGGCUGUGGCUAGACUGCA | 0.08
97 | GACAGAGCUCAACACAGCGUGGCAAAGUGGCUCUGGGUAGACUGCC | 0.07
98 | GACAGAGCUCAACACAGCGUGGCAAAGUGGCUCUAGCCAGACUGCC | 0.03
99 | GACAGAGCUCAACACAGCGUGUCAAAGUGGCGGUGGCUAGACUGCC | 0.06
100 | GACAGAGCACAACACAGCGUGGCAAAGUGGCUCUGGCUAGACUGCC | 0.06
101 | GACAGAGCUCAACACAGCAUGGCAAGGUGGCUGUGGCUAGACUGCC | 0.95
102 | GACAGAGCUCAACACACCGUGGCAAAGUGGUUGUGGCUAGACUGCC | 0.06
103 | GACAGAGCUCAACACAGCGUUGCAAAGUGGCUGUGGCUAGACCGCC | 0.12
104 | GACAGAGCUCAACACAGCCUGGCAAAGUGGCUGUGGCUUGACUGCC | 0.32
105 | GACAGAGCUCAACACAGCUUGGCAAAUUGGCUGUGGCUAGACUGCC | 0.42
106 | GACAGAGCUCAACACAGCGUGGCAAAGUGGCUAUGGCUAGACUGCU | 0.22
107 | GACAGAGCUCAACACAGCGCGGCCAAGUGGCUGUGGCUAGACUGCC | 0.56
108 | GACAGAGCUCAACACAUCGUGGCAAGGUGGCUGUGGGUAGCCUGCC | 0.08
109 | GACAGAGCUCAACACAGCAUGGCAGAGUGGCUGUCGCUAGACUGCC | 0.02
110 | GACAGAGCUCAACACAGCGUGGCAAAUUAGUGGUGGCUAGACUGCC | 0.04
111 | GACAGAGCACAACACAGCGUGGCAAAGUGGCUGUAACUAGACUUCC | 0.42
112 | GACAGAGCUCAACACAGCGUGGCAAAGUGACUGUUGCUAGACUGCC | 0.13
